This note sets out measurements from PubChem BioAssay AID1963448 (Molecular Pharmacology Branch, DTP, NCI, 2024).

The assay deals with 616215-338-R-J1-PDC complex spheroid growth, % test/control. As to the kind of experiment: Anticancer human tumor 616215-338-R-J1-PDC patient-derived colon adenocarcinoma cell line growth inhibition [Asc]. The conditions noted are these: for viability, T/C: stronger effect = lower value; for IC50: compound alone. On the procedure:
Multicellular complex tumor spheroid response to apoptosis pathway targeting inhibitors Alrizomadlin, Pelcitoclax, and Dasminapant in combination with a variety of drugs and investigational agents in selected tumor cell lines
The MDM2 inhibitor alrizomadlin, the Bcl-2/Bcl-xL inhibitor pelcitoclax, and the IAPs inhibitor dasminapant were evaluated both individually and in combination with standard of care and investigational anticancer small molecules within a complex spheroid model of solid tumors. . Complex spheroids include a stromal component modeled by human endothelial cells (HUVEC) and fibroblasts modeled by human mesenchymal stem cells (MSCs). The concentration ranges selected for each drug and investigational agent were based upon clinically achievable concentrations if the clinical Cmax of the agent was known.
Compounds. The drugs and investigational agents: alrizomadlin (APG-115; NSC831270), pelcitoclax (APG-1252; NSC835773), dasminapant (APG-1387;NSC834197), TAK-243 (NSC785004), copanlisib (NSC809693), olaparib (NSC753686), talazoparib (NSC767125), cobimetinib (NSC 768068), eltanexor (KPT-8602, NSC 794443), abemaciclib (NSC 768073), sotorasib (NSC818433), adagrasib (NSC 831453), MRTX-1133 (NSC 836407), Iadademestat (ORY1001, NSC 806812), and RMC-4630 (NSC839698), were obtained from the NCI Developmental Therapeutics Program Chemical Repository. The FDA-approved anticancer drug set is available from the Developmental Therapeutics Program at https://dtp.cancer.gov/organization/dscb/obtaining/available plates.htm. […] The stock solutions were prepared in dimethyl sulfoxide (DMSO, Sigma-Aldrich, St. Louis, MO, cat. D2650) at 800-fold the tested concentration and stored at -70 degrees C prior to their use. All drugs and investigational agents were tested over a range starting from a high concentration at or near the clinical Cmax and decreasing in half-log increments. If the clinical Cmax for an agent had not been determined, the highest concentration tested was 10 microM.
The patient-derived cancer (PDC) cell lines include five colon adenocarcinomas: 186277-243-T-J2-PDC, 616215-338-R-J1-PDC, 439559-082-T-J2-PDC, 463943-066-T-J2-PDC, and 519858-162-T-J1-PDC; three pancreatic carcinomas: 323965-272-R-J2-PDC, 521955-158-R6-J3-PDC, and 521955-158-R2-J5-PDC; two uterine sarcomas: 327498-152-R-J2-PDC and 993429-296-R-J1-PDC; two rhabdomyosarcomas: 755483-174-R-J1-PDC and 772245-204-R-J1-PDC; two soft tissue sarcomas: 126254-015-R-J1-PDC and 494315-158-R-J1-PDC; two malignant fibrous histiocytomas: 317291-083-R-J1-PDC and 596521-263-R-J1-PDC; two breast carcinomas: 171881-019-R-J1-PDC and 885512-296-R-J2-PDC; and one ovarian carcinoma: 6556581-035-R-J-PDC were obtained from the NCI PDMR, (https://pdmr.cancer.gov). The established cell lines HSSY-2 synovial sarcoma (RRID:CVCL 8719), SYO-1 synovial sarcoma (RRID:CVCL_7146), MPNST malignant peripheral neural sheath tumor were obtained from the Sloan Kettering Institute. The following established cell lines were purchased from the American Type Culture Collection (ATCC, Manassas, VA), Sor the received from the NCI repository:, PANC-1 pancreatic carcinoma (CRL-1469, RRID:CVCL_0480), OVCAR-5 ovarian carcinoma (RRID:CVCL_1628), OVCAR-8 ovarian carcinoma (RRID:CVCL_1629), , MCF-7 breast carcinoma (CRL-12584, RRID:CVCL_0031), MDA-MB-231 breast carcinoma (CRL-12532, RRID:CVCL_0062), NCI-H1876 small cell lung carcinoma (CRL-5902, RRID:CVCL_1503), NCI-H510A small cell lung carcinoma (HTB-184, RRID:CVCL_1565), NCI-H1417 (CRL-5869, RRID:CVCL_1469), and NCI-H196 small cell lung carcinoma (CRL-5823, RRID:CVCL_1509). Dr. Peter Houghton (Greehey Children's Cancer Research Institute, University of Texas Health Science Center, San Antonio, TX) provided Rh-18 rhabdomyosarcoma (RRID:CVCL_1659). Pooled donor human umbilical vein endothelial cells (HUVEC, Lonza, cat. CC-2519) and human mesenchymal stem cells (hMSC, Lonza, cat. PT-2501) were purchased from Lonza (Walkersville, MD).
Cell Culture. […]

Structures are written as SMILES. A number of entries come with more than one value. This is not the full list of results. There may be further records. The values listed for one entry are repeats (runs, samples, wells, individuals or studies). A date in brackets names the month of the test. Counts like (3×) give the number of equal values in this list.
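Also: spheroids exposed to agents for seven days before readout.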
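For viability, T/C in this document: 100% = DMSO vehicle control viability.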

On to `C#Cc1c(F)ccc2cc(O)cc(-c3ncc4c(N5CC6CCC(C5)N6)nc(OCC56CCCN5CC(F)C6)nc4c3F)c12` (configuration not stated), for which the viability, T/C (compound alone 10 µM) is 87.1%, 82% [2022-10] and 7.74% [2022-11].
Turning to `CCN1C(C(=O)NC23CCC(C(=O)O)(CC2)CC3)C(c2cccc(Cl)c2F)C2(C(=O)Nc3cc(Cl)ccc32)C12CCCCC2` (configuration not stated), the viability, T/C reads like this: (compound alone 0.0949 µM) 98.5, 93.8, 90.9, 97.2, 90.5, 83.8, 92.7, 91.5, 95.3, 95.1, 93.4, 86.5, 80.8, 99.2% [2022-10] and 62.1% [2022-11]; (compound alone 0.3 µM) 81.2, 68.5, 67.3, 62.5, 65.9 (2×), 65.2, 66.8, 65.5, 61.4, 64.2, 61.9, 55.4, 59% [2022-10] and 42.3% [2022-11]; (compound alone 0.949 µM) 70.7, 66.5, 59.5, 62.3, 62.2, 53.7, 61.1, 59.9, 58.1, 65.9, 79.1, 60.8, 69.4, 72.4% [2022-10] and 64.1% [2022-11]; (compound alone 3 µM) 56, 49.3, 47.2, 46.9, 49, 42.8, 47.5, 49.2, 49.5, 47.8, 60.3, 41.5, 51.3, 67% [2022-10] and 42.5% [2022-11]. The IC50 (run of 10/11/2022) was 2.64 µM, > 3 µM, 1.25 µM, 2.35 µM, 2.32 µM, 1.45 µM.
On to `NC(=O)C(=Cn1cnc(-c2cc(C(F)(F)F)cc(C(F)(F)F)c2)n1)c1cncnc1`, for which the 50% inhibitory concentration (IC50) is > 300 nM [2022-10] and 0.949 nM [2022-11].
Regarding `CNC(C)C(=O)NC1CN(S(=O)(=O)c2cccc(S(=O)(=O)N3CCC4CCC(C(=O)NC(c5ccccc5)c5ccccc5)N4C(=O)C(NC(=O)C(C)NC)C3)c2)CCC2CCC(C(=O)NC(c3ccccc3)c3ccccc3)N2C1=O` (configuration not stated), the viability, T/C is, setting by setting: (compound alone 0.00316 µM) 98.5%, 108% [2022-10] and 9.37, 107, 108, 109, 115, 99, 106% [2022-11]; (compound alone 0.0316 µM) 100%, 93.5% [2022-10] and 103, 114, 113, 104, 89, 84.2, 97.8% [2022-11]. Moreover, the IC50 (run of 11/15/2022) is < 3.16 nM and > 1 µM.
Take `C=C(F)C(=O)N1CCN(c2nc(OCC3CCCN3C)nc3c2CCN(c2cccc4cccc(Cl)c24)C3)CC1CC#N` (configuration not stated): the IC50 is 5.7 µM, 5.51 µM [2022-10] and 545 nM [2022-11]. Also, the viability, T/C (compound alone 3.16 µM) is 102%, 97.7% [2022-10] and 1.04% [2022-11].
